Measurements as given in publication PMC4919914 (2016).
Values belong to the binder of their own block, whether it stands above or below them.

Molecular target: tau T40 (Homo sapiens, UniProt P10636)
Assay: solid-phase immunoassay

Sequence of UniProt P10636 (P10636 2-758): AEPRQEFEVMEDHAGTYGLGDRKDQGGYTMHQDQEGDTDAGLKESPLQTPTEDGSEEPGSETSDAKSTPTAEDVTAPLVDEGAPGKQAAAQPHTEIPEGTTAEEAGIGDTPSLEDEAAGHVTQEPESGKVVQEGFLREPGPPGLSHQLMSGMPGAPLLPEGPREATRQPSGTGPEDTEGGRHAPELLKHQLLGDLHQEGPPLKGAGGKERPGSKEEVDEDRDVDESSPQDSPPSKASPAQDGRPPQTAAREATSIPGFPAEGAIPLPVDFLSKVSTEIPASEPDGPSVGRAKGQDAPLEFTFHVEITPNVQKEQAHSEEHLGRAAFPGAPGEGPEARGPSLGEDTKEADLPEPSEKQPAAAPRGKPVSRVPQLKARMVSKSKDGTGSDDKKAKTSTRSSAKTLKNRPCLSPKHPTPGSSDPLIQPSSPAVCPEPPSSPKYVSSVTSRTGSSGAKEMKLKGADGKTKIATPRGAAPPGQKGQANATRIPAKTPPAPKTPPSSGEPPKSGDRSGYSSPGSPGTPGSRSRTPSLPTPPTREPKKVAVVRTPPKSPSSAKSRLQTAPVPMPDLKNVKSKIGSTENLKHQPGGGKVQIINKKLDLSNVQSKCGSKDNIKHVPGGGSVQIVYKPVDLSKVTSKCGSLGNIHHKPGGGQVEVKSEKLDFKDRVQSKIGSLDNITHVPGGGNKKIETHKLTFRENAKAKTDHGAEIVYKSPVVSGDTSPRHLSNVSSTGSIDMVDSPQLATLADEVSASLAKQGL

- Kd: 8.1 nM
B1: neonatal tau NT (protein)
chain: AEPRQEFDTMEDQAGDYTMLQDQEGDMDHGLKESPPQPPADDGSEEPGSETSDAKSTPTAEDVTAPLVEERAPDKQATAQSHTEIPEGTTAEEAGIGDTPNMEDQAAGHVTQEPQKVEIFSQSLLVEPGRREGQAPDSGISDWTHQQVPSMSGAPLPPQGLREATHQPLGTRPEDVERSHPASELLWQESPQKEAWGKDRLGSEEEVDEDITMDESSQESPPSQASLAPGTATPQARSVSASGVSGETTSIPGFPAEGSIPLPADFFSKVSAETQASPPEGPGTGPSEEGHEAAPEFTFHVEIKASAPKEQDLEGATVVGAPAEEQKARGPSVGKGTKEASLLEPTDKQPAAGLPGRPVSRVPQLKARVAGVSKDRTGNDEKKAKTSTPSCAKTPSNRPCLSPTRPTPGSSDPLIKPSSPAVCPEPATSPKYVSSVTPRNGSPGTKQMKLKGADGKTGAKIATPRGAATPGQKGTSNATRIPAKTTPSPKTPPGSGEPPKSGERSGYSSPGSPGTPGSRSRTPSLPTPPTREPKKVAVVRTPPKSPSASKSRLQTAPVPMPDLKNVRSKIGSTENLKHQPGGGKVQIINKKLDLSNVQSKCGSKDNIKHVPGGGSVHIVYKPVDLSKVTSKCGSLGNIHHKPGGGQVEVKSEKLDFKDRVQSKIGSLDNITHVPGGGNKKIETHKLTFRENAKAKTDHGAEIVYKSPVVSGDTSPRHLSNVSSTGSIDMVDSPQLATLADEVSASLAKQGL

- Kd: 10.5 nM
B2: neonatal tau NTP (protein)
chain: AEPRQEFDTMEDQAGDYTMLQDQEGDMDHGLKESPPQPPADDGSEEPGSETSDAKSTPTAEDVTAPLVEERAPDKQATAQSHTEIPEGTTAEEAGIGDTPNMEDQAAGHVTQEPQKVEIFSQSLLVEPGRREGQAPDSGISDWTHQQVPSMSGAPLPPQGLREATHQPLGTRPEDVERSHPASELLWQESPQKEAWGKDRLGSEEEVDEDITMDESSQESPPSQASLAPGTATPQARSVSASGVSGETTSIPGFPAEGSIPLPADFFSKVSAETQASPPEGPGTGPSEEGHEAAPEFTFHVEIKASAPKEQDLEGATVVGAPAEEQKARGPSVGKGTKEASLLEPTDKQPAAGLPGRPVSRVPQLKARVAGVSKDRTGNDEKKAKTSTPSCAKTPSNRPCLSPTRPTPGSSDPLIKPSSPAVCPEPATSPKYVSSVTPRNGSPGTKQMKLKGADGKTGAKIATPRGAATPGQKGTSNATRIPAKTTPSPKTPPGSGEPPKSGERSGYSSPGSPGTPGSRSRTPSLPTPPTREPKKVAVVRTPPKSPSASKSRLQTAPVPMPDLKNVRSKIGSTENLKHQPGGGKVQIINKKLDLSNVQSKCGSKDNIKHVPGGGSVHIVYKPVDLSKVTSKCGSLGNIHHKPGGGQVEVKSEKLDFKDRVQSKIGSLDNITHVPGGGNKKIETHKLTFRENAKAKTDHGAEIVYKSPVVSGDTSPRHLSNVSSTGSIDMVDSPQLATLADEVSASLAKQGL
modifications: hyperphosphorylated NT
